The campaign covered roughly 46,000 compounds. About 60 (0.1%) were called active. About 3% were inconclusive and are not listed. The call rests on the fitted dose curve; in most records, active means well fitted inhibition curve with a large enough effect; inconclusive means small, poorly fitted or top-dose-only effect; inactive means no such curve, though single readings can be large or run the other way. The list shows a part of the results.
Assay: Primary qHTS assay for Inhibitors of ovarian cancer metastasis using an organotypic tumor microenvironment (TME) model. Further: nearly all actives have a fitted effect of over 65% in size.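 On activity change, negative = inhibition: plate controls were DMSO wells for no effect and tomatine positive control wells for full effect.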
Conditions: SKOV3ip1-GFP adhesion/invasion on 3D omental model, fluorescence; series mostly up to 45.8 µM; activity change, negative = inhibition: at the top concentration
In short: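 A 3D layer of primary human omental fibroblasts, mesothelial cells, fibronectin and collagen I, grown 48 hr, received SKOV3ip1-GFP cells in serum-free medium plus compounds at 0.36-46 umol/L. After 2 hr RT and 16 hr 37 C, fixed adherent GFP cells were counted; normalized to DMSO and tomatine.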

outcome, inactive:
COc1ccc(Cl)cc1NC(=O)Cn1nc(C(F)(F)F)c2c1CCCC2
Cc1cccc(NC(=O)C2CCCN(S(=O)(=O)c3ccc4c(c3)CCCC(=O)N4)C2)c1 (stereo unspecified)
O=C(c1ccc2c(c1)N(Cc1c(F)cccc1Cl)C(=O)c1ccccc1S2)N1CCCC1
O=C(Nc1cccc2cccnc12)c1ccc(-c2cccc(Cl)c2)o1
COc1ccc(-c2cc3ncc(C(=O)c4cc([N+](=O)[O-])ccc4O)cn3n2)cc1
COc1cccc(NC(=O)CCCn2c(=O)c3cccn3c3cccnc32)c1
CCN(C(=O)CSc1nnc(-c2cc3occc3n2C)n1-c1ccccc1C)c1cccc(C)c1
COc1ccc(NC(=O)CN2C(=O)CCc3cc(S(=O)(=O)N4CCOCC4)ccc32)c(OC)c1
CCOc1ccccc1NC(=O)Cn1c(=O)n(-c2ccccc2)c(=O)c2c1c1cc(C)ccc1n2C
CCc1nn(CC(=O)N(CC)Cc2ccccc2)c(=O)c2cc3occc3n12
CCN(CC)C(=O)c1cnn(-c2ccc(F)cc2)c1-n1cccc1
CCOc1ccc(-n2c(=O)c3c4c(sc3n(Cc3cccc(C)c3)c2=O)CCCC4)cc1
COc1ccc(NC(=O)Cn2c(=O)n(CC(=O)NCCc3ccccc3)c(=O)c3ccccc32)cc1
Cc1ccc(NC(=O)c2cc3c(-c4ccccc4)nn(-c4ccccc4)c3s2)cc1
COc1cc(-c2noc(-c3ccc(N(C)C)c([N+](=O)[O-])c3)n2)cc(OC)c1OC

Activity change, negative = inhibition, inactive:
COCCCn1c(SCC(=O)Nc2ccc(F)cc2)nc2c(sc3ccccc32)c1=O -3.53%
COc1ccc(CNC(=O)c2cc3cccc4c3n2CC(C)S4)cc1OC (stereo unspecified) -7.35%
COCCCn1c(=O)c2sccc2n2c(CCCC(=O)Nc3cccc(OC)c3)nnc12 -16.9%
Cc1ccc(CNS(=O)(=O)c2ccc3[nH]c4c(c3c2)CCCCC4)cc1 3.29%
CC(=O)N1CCCC1c1nc2ccccc2n1Cc1ccc(F)cc1 (stereo unspecified) -9.37%
O=C(CO)N1CCC(c2[nH]nc(-c3ccc(Cl)cc3)c2-c2ccncn2)CC1 -14.7%
COc1cc(NC(=O)CN2C(=O)COc3ccc(S(=O)(=O)NC4CCCC4)cc32)cc(OC)c1 7.43%
CCc1ccc(NC(=O)c2ccc(Cn3nc(N4CCN(c5ccccc5)CC4)ccc3=O)o2)cc1 0.576%
Cc1ccc(Cl)cc1-n1ncc2c(Nc3ccc4c(c3)OCCO4)ncnc21 -4.92%
CCCn1c2ccccc2c2cnn(CC(=O)NCCCN(CC)c3ccccc3)c(=O)c21 -4.28%
COc1cc(NS(=O)(=O)c2c(C(=O)N3CCCCC3)c(C)n(C)c2C)cc(OC)c1OC 4.44%
CCC(C)c1ccccc1OCC(=O)Nc1ccc(S(=O)(=O)Nc2cc(C)on2)cc1 (stereo unspecified) -5.05%
CC1CCc2c(sc3nnn(CC(=O)Nc4c(C(C)C)cccc4C(C)C)c(=O)c23)C1 (stereo unspecified) -3.95%
CCOC(=O)c1cc(-c2ccccc2)n(CC(=O)Nc2ccccc2OCC)c1C -0.229%
Cn1nnnc1SCCCNCc1cc(Br)ccc1OCc1ccccc1F -16.4%
Cc1ccc(CCNC(=O)c2ccc3c(c2)N(Cc2ccccc2F)C(=O)c2ccccc2S3=O)cc1 (stereo unspecified) 37.8%
O=C(Nc1sc2c(c1C(=O)NCC1CCCO1)CCC2)c1cc(=O)c2cc(Cl)ccc2o1 (stereo unspecified) -4.35%
CCOC(=O)c1c(S(=O)(=O)NCC(=O)Nc2ccc(C(C)=O)cc2)c(C)n(C)c1C 3.03%
O=C1C(=O)N(C2CCNCC2)CCN1Cc1ccccc1 -0.819%
Cc1cc(Nc2nc(N[C@@H](C)c3ccc(F)cc3)c(C#N)cc2F)n[nH]1 5.8%
Cc1cccc(C)c1NC(=O)CCCn1c(=O)c2cccn2c2ccccc21 -12.6%
COc1ccc(-c2nc(CCNC(=O)c3ccccc3)cs2)cc1OC -26.2%
Fc1ccc(-c2cc(-c3ccccc3)c3c(n2)-c2ccccc2OC3)cc1 3.06%
Fc1ccc(-c2csc(=Nc3cccc(C(F)(F)F)c3)n2Cc2ccc3c(c2)OCO3)cc1 0.418%
COc1ccc(-c2cn3c(n2)sc2cc(C(=O)NCCCN4CCCCC4)ccc23)cc1 -23.8%
CCCS(=O)c1ccc2nc(NC(=O)OC)[nH]c2c1 (stereo unspecified) 24%
Cc1nn(CCCC(=O)Nc2cc(C(F)(F)F)ccc2Cl)c(=O)c2c1sc1ccccc12 4.91%
CCNC(=O)c1c(C)oc2ncn(C)c(=O)c12 3.5%
CCc1ccc(CNC(=O)CSc2cc(=O)n(CC)c3ccccc23)cc1 -1.9%
COc1ccc(N2CCN(C(=O)c3ccc4c(=O)n(CCc5ccc(OC)c(OC)c5)c(=O)[nH]c4c3)CC2)cc1 -11.3%
CCc1ccc(NCc2cc3cc4c(cc3n(CC(=O)Nc3ccccc3Cl)c2=O)OCO4)cc1 3.93%
CCOCCCNC(=O)C1CCN(c2cc(C)nc3c(-c4ccc(Cl)cc4)c(C)nn23)CC1 15.4%
Cc1ccc(-c2cn3c(n2)sc2cc(C(=O)NC4CCCc5ccccc54)ccc23)cc1 (stereo unspecified) 15.9%
Clc1ccc2nc(Nc3ccccc3Cl)nc(-c3ccccc3)c2c1 -4.97%
CCc1ccc(NS(=O)(=O)c2ccc3[nH]cc(C(=O)NCc4ccc(C)cc4)c(=O)c3c2)cc1 -3.56%
COc1ccc(CNC(=O)c2cc3c(-c4ccccc4F)nn(C)c3s2)cc1 10.4%
COc1ccc(OC)c(NC(=O)c2c(NCc3ccc(OC)c(OC)c3)sc3c2CCC3)c1 4.29%
O=C(Nc1ccc(Br)cc1F)C(NS(=O)(=O)c1cccc2nsnc12)c1ccccc1 (stereo unspecified) 9.01%
COc1cccc(Cc2nc3ccccc3nc2SCC(=O)N2CCN(c3ccccc3)CC2)c1 -6.15%
O=C(Cn1c(-c2cccs2)cc2cc(F)ccc21)N1CCN(c2cccc(Cl)c2)CC1 -18.8%
Cc1ccccc1Cn1c2ccccc2c2cnn(CC(=O)NCCCc3ccccc3)c(=O)c21 -9.52%
Cc1ccc(CCNc2nc3c(S(=O)(=O)c4ccccc4)nnn3c3ccsc23)cc1 -3.52%
Cc1c(C(=O)NCc2ccccc2)sc2nc[nH]c(=O)c12 16.1%
O=C(Nc1cc(-c2nc3ccccc3o2)ccc1Cl)c1ccc(Br)o1 12%
COc1ccc(-c2cc(C(F)(F)F)nc(NCc3ccc(Cl)cc3)n2)cc1 3.69%
COc1ccccc1CNC(=O)CSc1cc(=O)n(C)c2ccccc12 3.29%

Source: PubChem BioAssay AID1963576 (National Center for Advancing Translational Sciences (NCATS), 2024)
